Out of some 310,000 compounds screened, about 2,200 (0.71%) showed an effect of 50% or more. Effects have a minus sign here. Some of the results follow.
Biological target: human ether-à-go-go-related gene (hERG) potassium channel (human, UniProt Q12809)
Experiment: primary screen, population patch clamp on CHO cells stably expressing hERG

human ether-à-go-go-related gene (hERG) potassium channel, sequence (Q12809 whole entry, looked up): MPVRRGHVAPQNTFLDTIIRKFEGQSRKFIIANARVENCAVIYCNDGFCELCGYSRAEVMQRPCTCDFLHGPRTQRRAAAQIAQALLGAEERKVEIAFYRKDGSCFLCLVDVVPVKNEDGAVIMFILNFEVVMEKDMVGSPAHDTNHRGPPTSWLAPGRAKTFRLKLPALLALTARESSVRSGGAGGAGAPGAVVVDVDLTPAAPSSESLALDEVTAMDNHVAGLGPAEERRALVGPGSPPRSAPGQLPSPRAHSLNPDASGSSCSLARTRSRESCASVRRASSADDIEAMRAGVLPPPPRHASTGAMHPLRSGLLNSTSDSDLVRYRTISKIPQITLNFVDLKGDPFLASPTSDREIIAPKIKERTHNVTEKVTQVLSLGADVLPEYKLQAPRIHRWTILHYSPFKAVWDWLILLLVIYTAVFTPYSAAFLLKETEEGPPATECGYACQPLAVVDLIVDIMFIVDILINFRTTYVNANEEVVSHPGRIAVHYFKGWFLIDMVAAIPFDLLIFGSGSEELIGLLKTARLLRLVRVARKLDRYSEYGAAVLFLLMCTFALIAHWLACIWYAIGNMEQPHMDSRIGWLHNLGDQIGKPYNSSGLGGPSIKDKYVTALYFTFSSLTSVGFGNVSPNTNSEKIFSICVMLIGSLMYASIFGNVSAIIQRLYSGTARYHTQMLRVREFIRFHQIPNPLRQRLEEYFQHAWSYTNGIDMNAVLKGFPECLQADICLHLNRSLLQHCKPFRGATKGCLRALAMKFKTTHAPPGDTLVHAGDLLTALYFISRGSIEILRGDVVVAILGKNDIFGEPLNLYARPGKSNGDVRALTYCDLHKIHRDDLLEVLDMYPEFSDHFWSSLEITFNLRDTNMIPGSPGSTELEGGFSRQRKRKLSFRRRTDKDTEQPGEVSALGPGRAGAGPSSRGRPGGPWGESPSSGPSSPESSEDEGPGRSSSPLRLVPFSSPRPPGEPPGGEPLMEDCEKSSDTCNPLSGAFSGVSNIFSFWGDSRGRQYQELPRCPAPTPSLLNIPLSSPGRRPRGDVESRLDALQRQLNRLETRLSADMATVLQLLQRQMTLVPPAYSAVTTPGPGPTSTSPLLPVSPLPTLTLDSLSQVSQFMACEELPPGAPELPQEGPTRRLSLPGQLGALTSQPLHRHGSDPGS

SMILES | hERG current change (%, negative = inhibition) at 1uM
O=C(Oc1ccccc1-c1csnn1)c1cccs1 | 4.7%
CC(NC(=O)CCNC(=O)c1ccccc1Cl)c1ccc(-n2ccnc2)cc1 (stereo not shown) | -4.42%
CCC(C(=O)OC)n1cnc2c(nnn2-c2ccc(F)cc2)c1=O (stereo not shown) | 3.75%
CCOC(=O)Cn1nnc2c(sc3nc4c(c(-c5ccccc5)c32)CCC4)c1=O | 13.8%
NC(=O)C1CCN(c2oc(/C=C/c3ccccc3)nc2S(=O)(=O)c2ccccc2)CC1 | 2.59%
Cc1ccc2nc(SCC(=O)NC3CCCc4ccccc43)[nH]c2c1 (stereo not shown) | 13.7%
O=C(COc1ccccc1)Nc1cc(NC(=O)COc2ccccc2)cc(C(=O)O)c1 | 9.77%
CC1=C/C(=N\OS(=O)(=O)c2ccccc2)C=CC1=O | 8.88%
CCC(=O)Nc1sc(Cc2ccc3c(c2)OCO3)c(C)c1C(N)=O | 8.83%
COc1ccc(C/C(N)=N/OC(=O)C(c2ccccc2)c2ccccc2)cc1OC | -10.1%
Cc1cc(NC(=O)CCN2C(=O)/C(=C\c3ccccc3)SC2=S)no1 | 5.57%
CCN(CC)c1ccc(N2C(=O)CSC2=S)cc1 | -4.65%
Cc1ccc(S(=O)(=O)NC2(C(F)(F)F)C(=O)Nc3c2c(=O)n(C)c(=O)n3C)cc1 (stereo not shown) | 14.7%
CCCCn1c(N)c(N(CC(C)C)C(=O)CSCc2c(C)noc2C)c(=O)[nH]c1=O | 5.74%
c1ccc(CN2CCN(c3nc4ccccc4n4cnnc34)CC2)cc1 | 10.8%
C=CCSC1=C(C#N)C2(CCCCC2)C(C#N)C(=O)N1 (stereo not shown) | 3.45%
COc1ccccc1CCc1nnc(CCC(=O)NC(C)Cc2ccsc2)o1 (stereo not shown) | 5.34%
CC(Oc1ccc(Cl)cc1Cl)C(=O)Nc1ncccn1 (stereo not shown) | 13.5%
CCc1cccc(CC)c1N1C(=O)c2cc(N3CCOCC3)c([N+](=O)[O-])cc2C1=O | 5.63%
COc1ccc(NC(=O)C2CCCN(S(=O)(=O)c3ccc4[nH]c(=O)ccc4c3)C2)cc1 (stereo not shown) | 10.8%
COc1ccc(-c2nn(C)c(=O)c3ccccc23)cc1CNC(=O)C1CCCCC1 | 0.228%
CCCCOC(=O)c1[nH]c2c(c1C)C(=O)CC(c1cc(OC)c(OC)c(OC)c1)C2 (stereo not shown) | 11.6%

SMILES | hERG current change (%, negative = inhibition) at 1uM
O=C(CN(c1ccc(F)cc1)S(=O)(=O)c1ccc2c(c1)OCCO2)NCc1cccnc1 | 11.9%
O=C1C=C(c2ccc(O)cc2)C[C@@H](c2ccc3c(c2)OCO3)C1 | 1.45%
CN(C)S(=O)(=O)c1ccc(Cl)c(NC(=O)COC(=O)/C=C/c2cnc3ccccc3n2)c1 | 8.52%
Cc1c(NC(=O)CCCOc2ccccc2)cccc1[N+](=O)[O-] | 9.61%
CCOc1ccc(C(=O)Cn2cnc3ccccc3c2=O)cc1 | 8.35%
O=c1c2c(-c3cccs3)csc2ncn1-c1ccccc1 | 8.07%
NCCCC[C@H]1NC(=O)[C@H](CCC(=O)O)NC(=O)c2cc([N+](=O)[O-])cc(I)c2OCC[C@@H](C(N)=O)NC1=O | 15.1%
Cc1cc(C)cc(Oc2ccc(-c3nnc(-c4ccccc4)o3)cc2[N+](=O)[O-])c1 | 12.3%
O=C1N[C@@H](Cc2ccccc2)C(=O)N2[C@@H]3N(S(=O)(=O)c4ccc(F)cc4)c4ccccc4[C@]3(Br)C[C@@H]12 | 7.4%
Cc1sc2ncn(C(C)C(=O)OC3CCCCC3)c(=O)c2c1C (stereo not shown) | 9.67%
Cc1ccc(-n2c(-c3ccccc3)n[nH]c2=S)cc1 | 14.8%
COc1cccc(C2C(C(=O)c3ccc(C)o3)=C(O)C(=O)N2CCN2CCOCC2)c1 (stereo not shown) | 18.1%
Cc1cccc(C)c1NC(=S)N1CC(C)OC(C)C1 (stereo not shown) | 6.95%
C[C@@H]1C[C@@H]([C@H](O)CC2CC(=O)NC(=O)C2)C(=O)[C@@H](C)C1 | 13.3%
Clc1ccc(C2=Nc3cc(Cl)ccc3OC2)cc1 | 12.4%
CCc1ccc(-c2cc3c(=O)n(CC(=O)N4CCCC4)nc(C)n3n2)cc1 | 8.3%
O=C(Nn1cnc2ccccc2c1=O)c1ccccc1[N+](=O)[O-] | 9.96%
COCC(=O)Nc1cc(C(=O)Nc2ccccc2C)ccc1Cl | 10.6%
COc1ccccc1CC(=O)Nc1cccc(F)c1 | 12.4%
CCC(=O)c1cn(CC(=O)Nc2ccccc2Cl)c2ccccc12 | 15.9%
O=C(O)c1nccnc1C(=O)NCCc1c[nH]c2ccccc12 | 0.225%
O=S(=O)(CCSc1nc2ccccc2o1)Cc1ccccc1 | 8.69%

SMILES | hERG current change (%, negative = inhibition) at 1uM
CCNC(=O)c1ccccc1NC(=O)c1cccc(S(=O)(=O)N2CCOCC2)c1 | -43.8%
O=C(Nc1ccc2[nH]c(=O)[nH]c2c1)c1ccc(Br)o1 | 4.04%
CC(C)NC(=O)c1onc(CSc2ccc(F)cc2)c1C(=O)O | 9.48%
O=C(CN1C(=O)C2CC=CCC2C1=O)NC1CCCc2ccccc21 (stereo not shown) | 10.8%
O=S(=O)(Nc1ccc(-c2nc3cccnc3s2)cc1)c1cccs1 | 17%
Cc1ccc(SCC(=O)OCC(=O)N2CCN(C(=O)c3ccco3)CC2)c(C)c1 | -1.4%
Cc1cc(Br)ccc1NC(=O)c1ccco1 | 12.2%
Cc1cccc(Cn2c(-c3ccc[nH]c3=O)nc3ccccc32)c1 | 9.51%
CCOc1ccc(CN(C)C(=O)CNC(=O)c2ccc(Br)o2)cc1OC | 8.7%
CC(C)CC(c1nnnn1CCc1ccccc1)N1CCN(C(=O)c2ccco2)CC1 (stereo not shown) | -10.5%
COC(=O)CCCC1=CC2=CC(=O)C(C)(OC(=O)c3cccs3)C(=O)C2=CN1C1CCCCC1 (stereo not shown) | 7.32%
Cc1cccc(OC2(c3ccccc3)OC(=O)c3ccccc32)c1C (stereo not shown) | 2.92%
CCO[C@@H]1OC(C(=O)Nc2ccccc2)=C[C@H](c2ccc(C(F)(F)F)cc2)[C@H]1CCCO | 15.7%
O=C(CCc1ccccc1)Nc1cccnc1Cl | 16.1%
CCC(C(=O)c1ccccc1)N(C(=O)c1ccccc1Cl)N1C(=O)C2C3C=CC(C3)C2C1=O (stereo not shown) | 4.35%
Cc1ccnc(NS(=O)(=O)c2ccc(NS(=O)(=O)c3cccs3)cc2)n1 | 11.6%
CCOC(=O)[C@]1(C#N)[C@@H]2C=CC(C(C)=O)=CN2[C@@H](C(N)=O)[C@@H]1c1ccsc1 | 11.3%
CCOC(=O)[C@H]1[C@H]2COc3ccccc3[C@@H]2N2C(=O)[C@@H](CO)NC(=O)[C@@]12C | 22.5%
CC(=O)Oc1ccc(Cn2cnc3cc4ccccc4cc32)cc1 | -2.54%
COc1ccc(CN(C)C(C)C(=O)Nc2ccc(S(=O)(=O)N3CCCCC3)cc2)cc1F (stereo not shown) | 5.25%
O=[N+]([O-])c1ccc(NS(=O)(=O)c2cccc3cccnc23)cc1 | 16.3%
COc1ccc(OC)c(C2=Nn3c(nnc3-c3ccco3)SC2)c1 | 8.21%

SMILES | hERG current change (%, negative = inhibition) at 1uM
CC(C)[C@H](NC(=O)c1cccc(CN(Cc2ccccc2)C(=O)/C=C/c2ccccc2)c1)C(=O)O | 9.42%
CCCNc1ncnc2onc(C)c12 | 16.1%
CC(Cl)C(=O)NN=C(c1ccccc1)c1ccccc1 (stereo not shown) | 9.19%
CCC(=O)NC(=Nc1nc2ccccc2s1)NC(=O)CC | 16.3%
COc1ccc(N2CCN(C(=O)Cc3csc(NC(=O)Nc4ccccc4OC)n3)CC2)cc1 | 9.92%
Cc1cccc(OCCCC(=O)Nc2ccc3c(c2)OCO3)c1 | -0.547%
Cl.Nc1nc(N2CCN(c3ccccn3)CC2)nc2ccccc12 | -52.8%
CSc1sc(C(=O)O)c(C)c1C(C)=O | 15.7%
Cc1c(NC(=O)c2ccc3c(c2)C(=O)N(CC2CCCO2)C3=O)cccc1C(=O)O (stereo not shown) | 18.5%
O=C(NCc1ccc(F)cc1)C1CCN(S(=O)(=O)c2ccc3c(c2)OCCCO3)CC1 | -1.19%
Cc1cccc(OCC(=O)Nc2ccccc2C(=O)N2CCOCC2)c1 | 9.23%
CCOc1ccc(CN=C(N)N=C(N)N)cc1Cl.Cl | -4.38%
CC(=O)CCCCn1c(=O)c2c(ncn2C)n(C)c1=O | 8.05%
Cc1cccc(NC(=O)CN2CCN(C(=O)c3ccc(OCc4cn5ccccc5n4)cc3)CC2)c1C | -14.5%
Cc1ccc(/C=C2\CCn3c2nc2cc(C(=O)O)ccc2c3=O)c(C)c1 | 13.2%
CCN(CCn1cccn1)Cc1ccccc1OCC(O)CN1CCc2ccccc2C1 (stereo not shown) | -3.69%
O=C(Nc1ccc(Cl)cn1)C1CCCN1S(=O)(=O)c1ccc(Cl)cc1 (stereo not shown) | -1.55%
CC1CN(c2nc3ccccc3nc2C(C#N)C(=O)NCc2ccc3c(c2)OCO3)CC(C)O1 (stereo not shown) | 13.5%
CC(=O)Nc1cccc(C(=O)OCC(=O)NCc2ccc(F)cc2)c1 | 0.244%

— publication PMC4336329 (PLoS ONE, 2015)
